Test results taken from the supplement of paper PMC8728848.
The other results are listed elsewhere or left out.

Legend:
Assay in all cases: glycan array binding signal (z-score within array); higher = stronger binding
Settings in all cases: glycan notation: IUPAC condensed, linker removed
[1] = target: GlcNAc(b1-2)Gal(b1-3)GalNAc
Outline: (§1)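 The binding signal is a Z-score computed within each array. Data were drawn from 3228 arrays in the Consortium for Functional Glycomics database, restricted to those with a known protein sequence. Scores were averaged over arrays of the same protein sequence at different concentrations or buffers, and over linkers, and negative values can be taken as non-binding.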

[2] = target: GlcNAc(b1-2)Man(a1-3)[GlcNAc(b1-2)Man(a1-6)]Man(b1-4)GlcNAc(b1-4)GlcNAc
Outline: as §1

[3] = target: GlcNAc(b1-2)Man(a1-3)[GlcNAc(b1-2)Man(a1-6)]Man(b1-4)GlcNAc(b1-4)[Fuc(a1-6)]GlcNAc
Outline: as §1

[4] = target: GlcNAc(b1-2)Man(a1-3)[GlcNAc(b1-4)][GlcNAc(b1-2)Man(a1-6)]Man(b1-4)GlcNAc(b1-4)GlcNAc
Outline: as §1

[5] = target: GlcNAc(b1-2)Man(a1-3)[GlcNAc(b1-4)][GlcNAc(b1-2)Man(a1-6)]Man(b1-4)GlcNAc(b1-4)[Fuc(a1-6)]GlcNAc
Outline: as §1

[6] = target: GlcNAc(b1-2)[GlcNAc(b1-4)]Man(a1-3)[GlcNAc(b1-2)Man(a1-6)]Man(b1-4)GlcNAc(b1-4)GlcNAc
Outline: as §1

[7] = target: GlcNAc(b1-2)[GlcNAc(b1-4)]Man(a1-3)[GlcNAc(b1-4)][GlcNAc(b1-2)Man(a1-6)]Man(b1-4)GlcNAc(b1-4)GlcNAc
Outline: as §1

[8] = target: GlcNAc(b1-2)[GlcNAc(b1-4)]Man(a1-3)[GlcNAc(b1-4)][GlcNAc(b1-2)[GlcNAc(b1-6)]Man(a1-6)]Man(b1-4)GlcNAc(b1-4)GlcNAc
Outline: as §1

[9] = target: GlcNAc(b1-2)[GlcNAc(b1-4)]Man(a1-3)[GlcNAc(b1-4)][GlcNAc(b1-2)[GlcNAc(b1-6)]Man(a1-6)]Man(b1-4)GlcNAc(b1-4)[Fuc(a1-6)]GlcNAc
Outline: as §1

[10] = target: GlcNAc(b1-2)[GlcNAc(b1-6)]Man(a1-6)[GlcNAc(b1-2)Man(a1-3)]Man(b1-4)GlcNAc(b1-4)GlcNAc
Outline: as §1

[11] = target: GlcNAc(b1-2)[GlcNAc(b1-6)]Man(a1-6)[GlcNAc(b1-2)Man(a1-3)]Man(b1-4)GlcNAc(b1-4)[Fuc(a1-6)]GlcNAc
Outline: as §1

[12] = target: GlcNAc(b1-2)[GlcNAc(b1-6)]Man(a1-6)[GlcNAc(b1-4)][GlcNAc(b1-2)Man(a1-3)]Man(b1-4)GlcNAc(b1-4)GlcNAc
Outline: as §1

GlcNAc(b1-3)Fuc = target: GlcNAc(b1-3)Fuc
Outline: as §1

GlcNAc(b1-3)Gal = target: GlcNAc(b1-3)Gal
Outline: as §1

[13] = target: GlcNAc(b1-3)Gal(b1-3)GalNAc
Outline: as §1

GlcNAc(b1-3)Gal(b1-4)Glc = target: GlcNAc(b1-3)Gal(b1-4)Glc
Outline: as §1

[14] = target: GlcNAc(b1-3)Gal(b1-4)GlcNAc
Outline: as §1

[15] = target: GlcNAc(b1-3)Gal(b1-4)GlcNAc(b1-2)Man(a1-3)[GlcNAc(b1-3)Gal(b1-4)GlcNAc(b1-2)Man(a1-6)]Man(b1-4)GlcNAc(b1-4)GlcNAc
Outline: as §1

[16] = target: GlcNAc(b1-3)Gal(b1-4)GlcNAc(b1-2)Man(a1-3)[GlcNAc(b1-3)Gal(b1-4)GlcNAc(b1-2)Man(a1-6)]Man(b1-4)GlcNAc(b1-4)[Fuc(a1-6)]GlcNAc
Outline: as §1

[17] = target: GlcNAc(b1-3)Gal(b1-4)GlcNAc(b1-2)[GlcNAc(b1-3)Gal(b1-4)GlcNAc(b1-6)]Man(a1-6)[GlcNAc(b1-3)Gal(b1-4)GlcNAc(b1-2)Man(a1-3)]Man(b1-4)GlcNAc(b1-4)GlcNAc
Outline: as §1

[18] = target: GlcNAc(b1-3)Gal(b1-4)GlcNAc(b1-3)Gal(b1-4)GlcNAc
Outline: as §1

[19] = target: GlcNAc(b1-3)Gal(b1-4)GlcNAc(b1-3)Gal(b1-4)GlcNAc(b1-2)Man(a1-3)[GlcNAc(b1-3)Gal(b1-4)GlcNAc(b1-3)Gal(b1-4)GlcNAc(b1-2)Man(a1-6)]Man(b1-4)GlcNAc(b1-4)GlcNAc
Outline: as §1

[20] = target: GlcNAc(b1-3)Gal(b1-4)GlcNAc(b1-3)Gal(b1-4)GlcNAc(b1-2)Man(a1-3)[GlcNAc(b1-3)Gal(b1-4)GlcNAc(b1-3)Gal(b1-4)GlcNAc(b1-2)Man(a1-6)]Man(b1-4)GlcNAc(b1-4)[Fuc(a1-6)]GlcNAc
Outline: as §1

[21] = target: GlcNAc(b1-3)Gal(b1-4)GlcNAc(b1-3)Gal(b1-4)GlcNAc(b1-2)[GlcNAc(b1-3)Gal(b1-4)GlcNAc(b1-3)Gal(b1-4)GlcNAc(b1-6)]Man(a1-6)[GlcNAc(b1-3)Gal(b1-4)GlcNAc(b1-3)Gal(b1-4)GlcNAc(b1-2)Man(a1-3)]Man(b1-4)GlcNAc(b1-4)[Fuc(a1-6)]GlcNAc
Outline: as §1

[22] = target: GlcNAc(b1-3)Gal(b1-4)GlcNAc(b1-3)Gal(b1-4)GlcNAc(b1-3)Gal(b1-4)GlcNAc(b1-2)Man(a1-3)[GlcNAc(b1-3)Gal(b1-4)GlcNAc(b1-3)Gal(b1-4)GlcNAc(b1-3)Gal(b1-4)GlcNAc(b1-2)Man(a1-6)]Man(b1-4)GlcNAc(b1-4)GlcNAc
Outline: as §1

[23] = target: GlcNAc(b1-3)Gal(b1-4)GlcNAc(b1-3)Gal(b1-4)GlcNAc(b1-3)Gal(b1-4)GlcNAc(b1-2)Man(a1-3)[GlcNAc(b1-3)Gal(b1-4)GlcNAc(b1-3)Gal(b1-4)GlcNAc(b1-3)Gal(b1-4)GlcNAc(b1-2)Man(a1-6)]Man(b1-4)GlcNAc(b1-4)[Fuc(a1-6)]GlcNAc
Outline: as §1

[24] = target: GlcNAc(b1-3)Gal(b1-4)GlcNAc(b1-3)Gal(b1-4)GlcNAc(b1-3)Gal(b1-4)GlcNAc(b1-2)[GlcNAc(b1-3)Gal(b1-4)GlcNAc(b1-3)Gal(b1-4)GlcNAc(b1-3)Gal(b1-4)GlcNAc(b1-6)]Man(a1-6)[GlcNAc(b1-3)Gal(b1-4)GlcNAc(b1-3)Gal(b1-4)GlcNAc(b1-3)Gal(b1-4)GlcNAc(b1-2)Man(a1-3)]Man(b1-4)GlcNAc(b1-4)[Fuc(a1-6)]GlcNAc
Outline: as §1

[25] = target: GlcNAc(b1-3)Gal(b1-4)GlcNAc(b1-3)Gal(b1-4)GlcNAc(b1-3)Gal(b1-4)GlcNAc(b1-3)Gal(b1-4)GlcNAc(b1-2)Man(a1-3)[GlcNAc(b1-3)Gal(b1-4)GlcNAc(b1-3)Gal(b1-4)GlcNAc(b1-3)Gal(b1-4)GlcNAc(b1-3)Gal(b1-4)GlcNAc(b1-2)Man(a1-6)]Man(b1-4)GlcNAc(b1-4)GlcNAc
Outline: as §1

[26] = target: GlcNAc(b1-3)Gal(b1-4)GlcNAc(b1-3)Gal(b1-4)GlcNAc(b1-3)Gal(b1-4)GlcNAc(b1-3)Gal(b1-4)GlcNAc(b1-2)Man(a1-3)[GlcNAc(b1-3)Gal(b1-4)GlcNAc(b1-3)Gal(b1-4)GlcNAc(b1-3)Gal(b1-4)GlcNAc(b1-3)Gal(b1-4)GlcNAc(b1-2)Man(a1-6)]Man(b1-4)GlcNAc(b1-4)[Fuc(a1-6)]GlcNAc
Outline: as §1

[27] = target: GlcNAc(b1-3)Gal(b1-4)GlcNAc(b1-3)Gal(b1-4)GlcNAc(b1-3)Gal(b1-4)GlcNAc(b1-3)Gal(b1-4)GlcNAc(b1-2)[GlcNAc(b1-3)Gal(b1-4)GlcNAc(b1-3)Gal(b1-4)GlcNAc(b1-3)Gal(b1-4)GlcNAc(b1-3)Gal(b1-4)GlcNAc(b1-6)]Man(a1-6)[GlcNAc(b1-3)Gal(b1-4)GlcNAc(b1-3)Gal(b1-4)GlcNAc(b1-3)Gal(b1-4)GlcNAc(b1-3)Gal(b1-4)GlcNAc(b1-2)Man(a1-3)]Man(b1-4)GlcNAc(b1-4)[Fuc(a1-6)]GlcNAc
Outline: as §1

[28] = target: GlcNAc(b1-3)Gal(b1-4)GlcNAc(b1-3)Gal(b1-4)GlcNAc(b1-3)GalNAc
Outline: as §1

[29] = target: GlcNAc(b1-3)Gal(b1-4)GlcNAc(b1-3)GalNAc
Outline: as §1

[30] = target: GlcNAc(b1-3)Gal(b1-4)GlcNAc(b1-3)[GlcNAc(b1-3)Gal(b1-4)GlcNAc(b1-3)]GalNAc
Outline: as §1

[31] = target: GlcNAc(b1-3)Gal(b1-4)GlcNAc(b1-6)[Gal(b1-3)]GalNAc
Outline: as §1

[32] = target: GlcNAc(b1-3)Gal(b1-4)GlcNAc(b1-6)[GlcNAc(b1-3)Gal(b1-3)]GalNAc
Outline: as §1

[33] = target: GlcNAc(b1-3)Gal(b1-4)GlcNAc(b1-6)[GlcNAc(b1-3)]Gal(b1-4)GlcNAc
Outline: as §1

GlcNAc(b1-3)GalNAc = target: GlcNAc(b1-3)GalNAc
Outline: as §1

GlcNAc(b1-3)Man = target: GlcNAc(b1-3)Man
Outline: as §1

[34] = target: GlcNAc(b1-3)[GlcNAc(b1-4)][GlcNAc(b1-6)]GlcNAc
Outline: as §1

[35] = target: GlcNAc(b1-3)[GlcNAc(b1-6)]Gal(b1-4)GlcNAc
Outline: as §1

[36] = target: GlcNAc(b1-3)[GlcNAc(b1-6)]GalNAc
Outline: as §1

[37] = target: GlcNAc(b1-4)Gal(b1-4)GlcNAc
Outline: as §1

GlcNAc(b1-4)GlcNAc = target: GlcNAc(b1-4)GlcNAc
Outline: as §1

[38] = target: GlcNAc(b1-4)GlcNAc(b1-4)GlcNAc
Outline: as §1

[39] = target: GlcNAc(b1-4)GlcNAc(b1-4)GlcNAc(b1-4)GlcNAc(b1-4)GlcNAc
Outline: as §1

B1: LecB PA7 (Pseudomonas aeruginosa) (protein)
chain: MATQGVFTLPANTRFGVTAFANSSATQTVKVLVNNETAATFTGQSTNNAVIGSQVLNSGGGGKVQIQVSVNGRSSDLVSAQVILANELNVALVGSEDSTDNDYNDAVVVINWPLG
B1 was tested, and the “glycan array binding signal (z-score)” value [1] was -0.505, the “glycan array binding signal (z-score)” value [2] was -0.477 and the “glycan array binding signal (z-score)” value [3] was -0.112. For the same binder, the “glycan array binding signal (z-score)” value [4] was -0.496, the “glycan array binding signal (z-score)” value [5] was 0.118 and the “glycan array binding signal (z-score)” value [6] was -0.401. The “glycan array binding signal (z-score)” value [7] was -0.511, the “glycan array binding signal (z-score)” value [8] was -0.5 and the “glycan array binding signal (z-score)” value [9] was 0.171. For the same binder, the “glycan array binding signal (z-score)” value [10] was -0.394, the “glycan array binding signal (z-score)” value [11] was 0.727 and the “glycan array binding signal (z-score)” value [12] was -0.491. The “glycan array binding signal (z-score)” value (GlcNAc(b1-3)Fuc) was 0.279, the “glycan array binding signal (z-score)” value (GlcNAc(b1-3)Gal) was -0.502 and the “glycan array binding signal (z-score)” value [13] was -0.504. The “glycan array binding signal (z-score)” value (GlcNAc(b1-3)Gal(b1-4)Glc) was -0.505, the “glycan array binding signal (z-score)” value [14] was -0.511 and the “glycan array binding signal (z-score)” value [15] was -0.495. For the same binder, the “glycan array binding signal (z-score)” value [16] was 0.561, the “glycan array binding signal (z-score)” value [17] was -0.363 and the “glycan array binding signal (z-score)” value [18] was -0.503. The “glycan array binding signal (z-score)” value [19] was -0.486, the “glycan array binding signal (z-score)” value [20] was 0.372 and the “glycan array binding signal (z-score)” value [21] was 0.017. The “glycan array binding signal (z-score)” value [22] was -0.467, the “glycan array binding signal (z-score)” value [23] was 0.235 and the “glycan array binding signal (z-score)” value [24] was -0.081. For the same binder, the “glycan array binding signal (z-score)” value [25] was -0.473, the “glycan array binding signal (z-score)” value [26] was 0.402 and the “glycan array binding signal (z-score)” value [27] was 0.048. For the same binder, the “glycan array binding signal (z-score)” value [28] was -0.51, the “glycan array binding signal (z-score)” value [29] was -0.495 and the “glycan array binding signal (z-score)” value [30] was -0.496. The “glycan array binding signal (z-score)” value [31] was -0.516, the “glycan array binding signal (z-score)” value [32] was -0.505 and the “glycan array binding signal (z-score)” value [33] was -0.51. The “glycan array binding signal (z-score)” value (GlcNAc(b1-3)GalNAc) was -0.506, the “glycan array binding signal (z-score)” value (GlcNAc(b1-3)Man) was -0.39 and the “glycan array binding signal (z-score)” value [34] was -0.499. The “glycan array binding signal (z-score)” value [35] was -0.516, the “glycan array binding signal (z-score)” value [36] was -0.512 and the “glycan array binding signal (z-score)” value [37] was -0.495. For the same binder, the “glycan array binding signal (z-score)” value (GlcNAc(b1-4)GlcNAc) was -0.486, the “glycan array binding signal (z-score)” value [38] was -0.497 and the “glycan array binding signal (z-score)” value [39] was -0.494.
